Laboratory results as given in PubChem BioAssay AID493208 (National Center for Advancing Translational Sciences (NCATS), 2011).
About 340 (0.77%) of roughly 44,000 compounds were called active. Inconclusive results (about 5%) are left out. Calls follow the shape of the dose curve; as a rule, active = well fitted inhibition curve with a large enough effect; inconclusive = small, poorly fitted or top-dose-only effect; inactive = flat fitted curve, though single readings scatter. The list shows a part of the results.
Potency is read from the fitted curve at half-maximal effect.

Assay: Acumen qHTS Assay for Inhibitors of the mTORC1 Signaling Pathway in MEF (Tsc2-/-, p53-/-) Cells: Sytravon; also: nearly all actives have a fitted effect of over 50% in size;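 as to activity change, negative = inhibition: plate controls were DMSO for no effect and rapamycin for full effect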
Details: phospho-rpS6 immunofluorescence/PI, 24 h; series mostly up to 38.3 µM; activity change, negative = inhibition: at the top concentration
Outline: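 Immunofluorescence of rpS6 phosphorylation in Tsc2-/-, p53-/- MEFs after 24 h compound exposure, normalized to propidium iodide signal. Activity is expressed as % positive cells, thresholded with 7.5 nM rapamycin.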
In the case of `CCc1ccc(NC(=O)CN2C(=O)CC(c3ccccc3)Sc3ccccc32)cc1` (stereo not drawn), the “activity change, negative = inhibition” value is reported as inactive: 0.829%.
For `COc1ccc(-c2cccc(NS(=O)(=O)c3ccc(NC(C)=O)cc3)c2)nn1`, the “activity change, negative = inhibition” value was inactive: -7.79%.
For `CCOc1ccccc1Nc1nc2c(S(=O)(=O)c3ccc(C)cc3)nnn2c2ccsc12`, the “activity change, negative = inhibition” value was inactive: -2.72%.
For `Cc1ccc(-c2nc3scc(CCNS(=O)(=O)c4ccc(Oc5ccccc5)cc4)n3n2)cc1`, the “activity change, negative = inhibition” value was inactive: -8.75%.
With `CCc1cccc(C)c1NC(=O)CN1C(=O)c2cccc3cccc1c23` the “activity change, negative = inhibition” value was inactive: -14.3%.
For `CCCCCNC(=O)C1CCC(Cn2c(=O)c3sccc3n(CC)c2=O)CC1` (stereo not drawn), the “activity change, negative = inhibition” value was inactive: -2.03%.
For `Cc1ccc2nc(CSc3nnc(NC(=O)c4ccc(C(C)(C)C)cc4)s3)cc(=O)n2c1`, the “activity change, negative = inhibition” value was inactive: 10.8%.
In the case of `CC(=O)Nc1ccc(NC(=O)c2ncoc2-c2ccco2)cc1`, the “activity change, negative = inhibition” value is reported as inactive: 0%.
With `CCOc1cc(/C=C(\C#N)C(=O)Nc2ccc(OC)cc2)ccc1OCc1cc(=O)n2nc(CC)sc2n1` the “activity change, negative = inhibition” value was inactive: 1.26%.
For `Cc1ccc(CN2C(=O)C3(c4ccccc42)N(c2ccc(C)c(Cl)c2)C(=O)CS3(=O)=O)cc1` (stereo not drawn), the “activity change, negative = inhibition” value was inactive: -21.2%.
For `CCc1nc2sc3c(N4CCCCC4)ncnc3c2c2c1CCCC2`, the “activity change, negative = inhibition” value was inactive: -16.1%.
With `COc1cccc(/C=C(\C#N)C(=O)Nc2ccc(NC(C)=O)cc2)c1OC` the “activity change, negative = inhibition” value was inactive: 6.46%.
In the case of `COc1ccc(NC(=O)CSc2cn(CCNC(=O)c3ccc(OC)cc3)c3ccccc23)cc1`, the “activity change, negative = inhibition” value is reported as inactive: -4.19%.
In the case of `Cc1oc(-c2cccc(Br)c2)nc1Cn1c(SCc2cccc(F)c2)nc2cccnc21`, the “activity change, negative = inhibition” value is reported as inactive: 1.75%.
In the case of `O=C(CCC1N=C2c3ccccc3N=C(SCc3cccc(Cl)c3)N2C1=O)NCCc1ccccc1` (stereo not drawn), the “activity change, negative = inhibition” value is reported as inactive: -0.217%.
In the case of `COc1ccc(NC(=O)CCS(=O)(=O)c2ccc3c(c2)n(C)c(=O)c(=O)n3C)cc1Cl`, the “activity change, negative = inhibition” value is reported as inactive: -4.84%.
With `COc1ccc(Br)cc1CNC(=O)CSc1n[nH]c(-c2ccccc2)n1` the “activity change, negative = inhibition” value was inactive: -1.1%.
With `CCC(C)[C@H](N)c1nnc(SCc2ccc(Cl)c(Cl)c2)o1` (stereo partly drawn) the “activity change, negative = inhibition” value was inactive: -3%.
In the case of `CC1=C(C(=O)Nc2ccccc2)C(c2ccc(O)cc2)n2nc(-c3ccc(Cl)cc3)nc2N1` (stereo not drawn), the “activity change, negative = inhibition” value is reported as inactive: 9.68%.
With `Cc1ccc(S(=O)(=O)NCCSc2nnnn2-c2ccccc2)cc1` the “activity change, negative = inhibition” value was inactive: 6.44%.
In the case of `COc1ccc2c(c1)NC(c1ccc(Cl)cc1)=NC(c1cccs1)=N2`, the “activity change, negative = inhibition” value is reported as inactive: 2.69%.
For `CCn1c(CN2CCCCC2)nc2cc(NC(=O)COc3ccc(C(C)(C)C)cc3)ccc21`, the “activity change, negative = inhibition” value was inactive: -5.46%.
With `CC(C)(C)c1ccc(-c2nnc(-c3ccccc3NC(=O)c3cccc(C(F)(F)F)c3)o2)cc1` the “activity change, negative = inhibition” value was inactive: -3.51%.
For `CCCN1C(=O)C(Cc2nc3ccccc3c(=O)n2CC)c2cc(Br)ccc21` (stereo not drawn), the Potency was active: 14.7 µM.
For `Cc1ccc(C)c(Cn2c(=O)n(Cc3ccccc3)c(=O)c3sc4ccccc4c32)c1`, the “activity change, negative = inhibition” value was inactive: 0.0743%.
With `Cc1ccc(/C=C/c2onc(C)c2S(=O)(=O)N2CCC(C(=O)NCc3ccco3)CC2)cc1` the “activity change, negative = inhibition” value was inactive: -11%.
With `Cc1ccc(CCNC(=O)c2ccc3c(c2)N(Cc2cc(C)ccc2C)C(=O)c2ccccc2S3=O)cc1` (stereo not drawn) the “activity change, negative = inhibition” value was inactive: 1.84%.
For `COc1ccc2c(c1)NC(c1ccc(F)cc1)=NC(c1ccc(F)cc1)=N2`, the “activity change, negative = inhibition” value was inactive: -4.36%.
With `CCOC(=O)c1cccc(NS(=O)(=O)c2cc(Br)cc3c2N(C(=O)C2CC2)CC3)c1` the “activity change, negative = inhibition” value was inactive: 0%.
In the case of `COC(=O)c1ccc(OCC2c3cc(OC)c(OC)cc3CCN2C(=O)c2cccc(C)c2)cc1` (stereo not drawn), the “activity change, negative = inhibition” value is reported as inactive: -7.77%.
In the case of `COc1ccc(NC(=O)C2CCN(C3=NS(=O)(=O)C(c4ccc(C)c(C)c4)=C3C)CC2)cc1OC`, the “activity change, negative = inhibition” value is reported as inactive: 0.258%.
In the case of `COc1cccc(N2CCN(C(=O)CN3CCSc4ccc(S(=O)(=O)N(C)C)cc43)CC2)c1`, the “activity change, negative = inhibition” value is reported as inactive: 10.9%.
In the case of `COc1ccc(CNC(=O)CCS(=O)(=O)c2cc(Br)cc3c2N(C(=O)C2CC2)CC3)cc1`, the “activity change, negative = inhibition” value is reported as inactive: -10.5%.
In the case of `COc1cccc(CNC(=O)Cn2c(=O)n3nc(-c4cccc(C)c4)nc3c3ccccc32)c1`, the “activity change, negative = inhibition” value is reported as inactive: 0.215%.
With `CCCCN(Cc1ccccc1)S(=O)(=O)c1ccc2c(c1)CCN2C(=O)C1CCC1` the “activity change, negative = inhibition” value was inactive: -10.3%.
For `COc1ccc(Nc2ncnc3onc(C)c23)cc1Cl`, the “activity change, negative = inhibition” value was inactive: 6.41%.
In the case of `CCCSCCCNC(=O)C1CCCN(C(=O)c2cnn(-c3ccccc3)c2-n2cccc2)C1` (stereo not drawn), the “activity change, negative = inhibition” value is reported as inactive: 0.569%.
With `O=C(Cn1nc(Cc2cccnc2)c2ccccc2c1=O)N1CCN(c2ccc(F)cc2)CC1` the “activity change, negative = inhibition” value was inactive: -24.6%.
With `CCN(C(=O)C(NS(=O)(=O)c1cccc2nsnc12)c1ccccc1)c1ccccc1` (stereo not drawn) the “activity change, negative = inhibition” value was inactive: 3.98%.
With `COc1ccc(-c2ccnc3c2c(=O)n(C)c(=O)n3C)cc1OC` the “activity change, negative = inhibition” value was inactive: -0.0535%.
In the case of `COCCCNC(=O)CCCN1C(=O)CCn2nc(-c3cn(C)c4ccccc34)cc21`, the “activity change, negative = inhibition” value is reported as inactive: 7.18%.
For `Cc1ccc(C)c(N2CCN(CCCNc3ncnc4onc(-c5ccc(Cl)cc5)c34)CC2)c1`, the “activity change, negative = inhibition” value was inactive: 6.28%.
With `Cc1ccc(NC(=O)[C@H](CSCc2ccccc2)N2Cc3ccccc3C2=O)cc1` the “activity change, negative = inhibition” value was inactive: -9.75%.
In the case of `COc1ccc(OC)c(CNC(=O)CCS(=O)(=O)c2ccc3c(c2)oc(=O)n3C)c1`, the “activity change, negative = inhibition” value is reported as inactive: -1.51%.
In the case of `Cc1cc(C)c(NC(=O)CN2C(=O)c3cccnc3Oc3ccc(Cl)cc32)c(C)c1`, the “activity change, negative = inhibition” value is reported as inactive: -7.95%.
In the case of `Cc1cc(Nc2ccc(C)c(Cl)c2)n2nc(-c3ccccc3)nc2n1`, the “activity change, negative = inhibition” value is reported as inactive: -2.25%.
For `Cc1ccc(C(=O)N2c3nc(-c4ccco4)nn3C3(CCCCC3)[C@@H]3CCCC[C@@H]32)cc1`, the “activity change, negative = inhibition” value was inactive: 1.68%.
With `CC1CCN(S(=O)(=O)c2cccc(C(=O)NC3CCS(=O)(=O)C3)c2)CC1` (stereo not drawn) the “activity change, negative = inhibition” value was inactive: -13%.
For `COc1ccc(-c2nc3cc(NC(=O)COc4ccc(F)cc4)ccc3o2)cc1`, the “activity change, negative = inhibition” value was inactive: -9.67%.
With `Cc1csc2nc(-c3cccc(NC(=O)c4ccc(S(N)(=O)=O)cc4)c3)cn12` the “activity change, negative = inhibition” value was inactive: 5.39%.
For `Cn1c(=O)c2c(-c3ccccc3)n3c(c2n(C)c1=O)C(c1cc(Cl)ccc1O)Nc1ccccc1-3` (stereo not drawn), the “activity change, negative = inhibition” value was inactive: 0.241%.
With `O=C(CCNS(=O)(=O)c1cccc2nsnc12)Nc1ccc(F)cc1` the “activity change, negative = inhibition” value was inactive: 0%.
With `Cc1ccc2cccc(NC(=O)c3ccc(-c4ccc(Cl)cc4Cl)o3)c2n1` the “activity change, negative = inhibition” value was inactive: -4.98%.
In the case of `COc1ccc(OC)c(CNC(=O)c2cc(=O)[nH]c3ccc(S(=O)(=O)N4CCCCC4C)cc23)c1` (stereo not drawn), the “activity change, negative = inhibition” value is reported as inactive: -5.35%.
With `COc1cccc(NC(=O)Cn2c(=O)n(Cc3nc(-c4ccccc4)no3)c(=O)c3ccccc32)c1` the “activity change, negative = inhibition” value was inactive: 0.373%.
With `COc1ccccc1/C=C(\C#N)c1nc(-c2cc3ccccc3oc2=O)cs1` the “activity change, negative = inhibition” value was inactive: -7.06%.
With `CCC(=O)Nc1ccc(S(=O)(=O)NCc2cccn2Cc2cccc(C)c2)cc1` the “activity change, negative = inhibition” value was inactive: 8.15%.
In the case of `CCOC(=O)N1CCC(NC(=O)c2cnn(-c3ccccc3)c2C2CCN(C(=O)OC(C)(C)C)CC2)CC1`, the “activity change, negative = inhibition” value is reported as inactive: -0.593%.
